# According to the supplement of paper PMC10600219:
# Counter-ions that a name gives are not always drawn. Whole data set: some 2,800 compounds, median “cell viability relative to vehicle” near 0.98, cut for the lowest 2% near 0.45. This is one part of the list.
# System: NCI-H2228 alectinib-DTP
# Test: cell viability relative to vehicle (fraction of vehicle); NCI-H2228 is an ALK-positive lung cancer line and DTP means drug-tolerant persister; higher = less growth inhibition
# Details: 100 nM; treatment time 6 days
# In short: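 Parental NCI-H2228 cells and drug-tolerant persister cells (made with 1000 nM of a targeted drug for 13 days) were seeded in 384-well plates. The next day, the 3114-agent TargetMol anti-cancer compound library was added at 100 nM, with DMSO as vehicle. After 6 days, ATP was read with the CellTiter-Glo 3D Cell Viability Assay. Each value is cell viability relative to vehicle-treated cells.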
row,SMILES,cell viability
1,COc1cc(/C=C/c2ccc(O)cc2)cc(OC)c1 [Pterostilbene],0.819
2,CCOC(=O)c1ncn2c1CN(C)C(=O)c1cc(F)ccc1-2 [Flumazenil],0.912
3,O=NN(CCCl)C(=O)NCCCl [Carmustine],0.936
4,CC1=C(C(=O)Nc2cc3cn[nH]c3cc2F)C(c2ccc(C(F)(F)F)cc2)CC(=O)N1 (stereo not drawn),1.11
5,CNC(=O)c1ccccc1Nc1nc(Nc2ccc(N3CCOCC3)cc2OC)ncc1Cl,0.926
6,Cn1c(=O)cc(C(=O)Nc2ccc3c(c2)OCCO3)c2ccccc21,0.872
7,O[C@@H]1[C@H](O)[C@H](O)CO[C@H]1O [D-(-)-Ribose],1.06
8,CCCCN(Cc1ccc(C(=O)NO)cc1)C(=O)Nc1ccccc1 [Nexturastat A],0.877
9,CC(C(=O)O)c1cccc(C(=O)c2ccccc2)c1 (stereo not drawn) [Ketoprofen],0.994
10,N#Cc1ccnc(Nc2cc(C3CCN(C4COC4)CC3)cc(N3CCC(F)(F)C3)n2)c1,0.854
11,Cn1c(=O)c(Oc2ccc(F)cc2F)cc2cnc(NC(CCO)CCO)nc21 [Pamapimod],1.01
12,NCCCC[C@@H]1NC(=O)[C@@H](Cc2ccccc2)NC(=O)[C@H](CC(=O)O)NC(=O)CNC(=O)[C@H](CCCN=C(N)N)NC1=O [Cyclo (-RGDfK)],0.995
13,c1cc(-c2cnn3cc(-c4ccc(N5CCNCC5)cc4)cnc23)c2cccnc2c1,1.19
14,O=C([O-])CN(CCN(CC(=O)[O-])CC(=O)O)CC(=O)[O-].[Na+].[Na+].[Na+] [Edetate Trisodium],1.15
15,COc1ccc(/C=C\c2cc(OC)c(OC)c(OC)c2)cc1O [Combretastatin A4],0.642
16,Cc1cccc(C)c1N(CC(=O)Nc1ccc(-c2ncon2)cc1)C(=O)C1CCS(=O)(=O)CC1 [Amenamevir],0.926
17,CCN(CC)CCNC(=O)c1c(C)[nH]c(/C=C2\C(=O)Nc3ccc(-c4csc(-c5ccccc5)n4)cc32)c1C [Amcasertib],1.18
18,COc1cc(C(C)=O)ccc1OCCCN1CCC(c2noc3cc(F)ccc23)CC1 [Iloperidone],0.901
19,C[C@@H]1CC(=O)Nc2cccc(-c3ccc4c(c3)c(-c3cnn(C)c3)nn4C)c2N1,1.01

row,SMILES,cell viability
1,CC(C)(C)c1ccc(C(=O)NC(=S)Nc2ccc(N)cc2)cc1 [Tenovin3],0.734
2,COc1c(N2C[C@@H]3CCCN[C@@H]3C2)c(F)cc2c(=O)c(C(=O)O)cn(C3CC3)c12 [Moxifloxacin hydrochloride],1.03
3,Nc1nc2cc(-c3ccc4ncc(C(=O)N5CCOCC5)n4c3)ccc2o1 [Serabelisib],0.985
4,COc1ncnc(NS(=O)(=O)c2ccc(N)cc2)c1OC [Sulfadoxine],1.02
5,CS(=O)(=O)N1CCN(Cc2cc3nc(-c4cccc5[nH]ncc45)nc(N4CCOCC4)c3s2)CC1 [Pictilisib],0.669
6,CC(C)NCC(O)c1ccc(O)c(O)c1 (stereo not drawn) [Isoprenaline hydrochloride],1.15
7,COc1ccc2[nH]c([S@@+]([O-])Cc3ncc(C)c(OC)c3C)nc2c1 [Esomeprazole Magnesium],0.972
8,Oc1ccc(-c2c(-c3ccccc3)nn3c(C(F)(F)F)cc(C(F)(F)F)nc23)cc1,1.04
9,COc1ccc(S(=O)(=O)Nc2c(C)cc(C)cc2C)cc1,1.02
10,Cc1cc(O)c(C(=O)CCC(C)C)c(=O)o1 [Pogostone],1.13
11,Nc1nc2c(ncn2COCCO)c(=O)[nH]1 [Aciclovir],1.11
12,CC(C)(CCCCCC(O)CCCCCC(C)(C)C(=O)O)C(=O)O,1.1
13,O=C(O)Cn1c2c(c3cc(F)ccc31)CN(C(=O)c1cccc3ccccc13)CC2 [Setipiprant],1.18
14,O=S(=O)(c1ccccc1)N(CC(F)(F)F)c1ccc(C(O)(C(F)(F)F)C(F)(F)F)cc1,0.833
15,CC#CC(=O)Nc1ccc2ncnc(Nc3cccc(Br)c3)c2c1,0.829
16,Cc1nc2cccc(N)c2c(=O)n1C1CCC(=O)NC1=O (stereo not drawn) [Avadomide],0.982
17,CC(C)n1cnc2c(-c3cnc(N)nc3)nc(N3CCOCC3)nc21 [Desmethyl-VS-5584],0.893
18,O=C(O)c1ccc(N2C(=O)/C(=C\c3ccc(-c4ccc([N+](=O)[O-])cc4)o3)C=C2c2ccccc2)cc1 [4E1rcat],0.914
19,COc1cc(F)c(F)c(Nc2ccc(I)cc2F)c1NS(=O)(=O)C1(C[C@H](O)CO)CC1 [Refametinib],1.06
